# Measurements taken from PubChem BioAssay AID686978 (National Center for Advancing Translational Sciences (NCATS), 2013).
# Out of some 420,000 compounds screened, about 64,000 (15%) were called active. This list was built around the results that the source calls inconclusive (neither active nor inactive); the mix of calls is not that of the screen. The call rests on the fitted dose curve; in most records, active means well fitted inhibition curve with a large enough effect; inconclusive means small, poorly fitted or top-dose-only effect; inactive means flat fitted curve, though single readings scatter. Potencies of inconclusive entries are left out as doubtful fits.
# Assay: qHTS for Inhibitors of human tyrosyl-DNA phosphodiesterase 1 (TDP1): qHTS in cells in absence of CPT; further: nearly all actives have a fitted effect of over 55% in size
# Conditions: DT40 Tdp1-/- hTDP1 cells, no CPT, ATP luminescence, 48 h; activity change, negative = growth inhibition: at 46.2 µM (top of the series)
# Outline: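 Camptothecin absent (DMSO only). Human TDP1-complemented DT40 knockout cells, 400 cells/well, 37 °C for minimum 48 hr; ATP measured via CellTiter-Glo, 30 min dark incubation, luminescence.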
# On the % scale 0 is the no-effect control and ±100 the full control effect; potency means the concentration at half of the fitted maximal effect; tags describe the fitted curve by direction and shape.
Structure (SMILES),Potency,"activity change, negative = growth inhibition"
Cc1cc(=O)c2ccc(NC(=O)c3ccccc3)cc2[nH]1,inactive,–
COCc1cc(C)nc2sc(C(=O)Nc3ccccc3O)c(N)c12,"inconclusive [inhibitor, partial curve]",–
O=C(CCN1CCN(c2ccccc2)CC1)c1ccc(Cl)cc1,active: 6.51 µM,–
O=C(Nc1ccc(Oc2ccccc2)nc1)C1CCCCN1Cc1cccc(O)c1 (stereo not given),"inconclusive [inhibitor, single point]",–
O=[N+]([O-])c1cc(Cl)ccc1N1CCN(c2cccc(C(F)(F)F)c2)CC1,active: 9.2 µM,–
COc1ccc(C2CC(=O)c3c([nH]c(C(=O)OCc4ccccc4)c3C)C2)cc1 (stereo not given),"inconclusive [inhibitor, single point]",–
CCc1c(C(=O)Nc2ccc(OC)cc2)[nH]c(C)c1C(C)=O,"inconclusive [inhibitor, single point]",–
C=CCN1C(=O)/C(=C\c2ccc(OC(=O)c3ccco3)c(OC)c2)SC1=S,"inconclusive [inhibitor, single point]",–
C=C(C)C(=O)Nc1cccc(C2=NOC3(C2)C[C@H](C(N)=O)N(C(=O)c2ccccc2C(=O)c2ccccc2)C3)c1 (stereo not given in full),"inconclusive [inhibitor, single point]",–
CCC1Nc2ncnc(N3CCCCC3)c2N(Cc2ccc(C)cc2)C1=O (stereo not given),"inconclusive [inhibitor, single point]",–
O=C(c1ccc(Cl)s1)N(Cc1nnc(-c2ccccc2Cl)o1)C1CC1,"inconclusive [inhibitor, single point]",–
COc1ccccc1CCNC(=O)c1cccc(S(=O)(=O)N2CCc3ccccc3C2)c1,"inconclusive [inhibitor, single point]",–
CC1CC(C)CN(S(=O)(=O)c2ccc3oc(=O)ccc3c2)C1 (stereo not given),inactive,–
CN(C)C(=O)CCc1ccc2c3c([nH]c2c1)[C@]1(CCC2CCCC2)[C@@H](C(=O)N2CCOCC2)C[C@H](CC(=O)NCc2cccc(C(F)(F)F)c2)C(=O)N1CC3,active: 14.6 µM,–
COc1ccc(C(CNC(=O)c2cccc(NS(=O)(=O)c3ccccc3)c2)N2CCCC2)cc1 (stereo not given),"inconclusive [inhibitor, partial curve]",–
O=[N+]([O-])c1ccc(S(=O)(=O)Nc2nc(-c3ccccc3)cs2)cc1,"inconclusive [inhibitor, partial curve]",–
O=C(CSc1ncnc2c1cnn2CCO)Nc1cccc(C(F)(F)F)c1,"inconclusive [inhibitor, partial curve, poor fit]",–
C=CC[C@H](CC(=O)N(CCO)Cc1ccccc1)C(=O)N[C@H](COC(=O)[C@@H](CC=C)Cc1ccc(F)cc1)Cc1ccccc1,active: 20.6 µM,–
COc1ccccc1NC(=O)C1=C(C)Nc2c(C(=O)Nc3ccc(C)cc3)cnn2C1c1cccc(OC)c1OC (stereo not given),"inconclusive [inhibitor, partial curve]",–
CCCCCCc1nc2ccccc2c(=O)n1N,"inconclusive [inhibitor, single point]",–
COc1ccc(CC(N)c2csc(Nc3cnccn3)n2)cc1 (stereo not given),"inconclusive [inhibitor, single point]",–
CC1(C(=O)NS(=O)(=O)Cc2ccccc2)CCN1C(=O)Cc1ccccc1 (stereo not given),inactive,–

Structure (SMILES),Potency,"activity change, negative = growth inhibition"
Cc1nn(C)c(C)c1NS(=O)(=O)c1cccc(Br)c1,"inconclusive [inhibitor, partial curve]",–
CC1CCCN(C(=O)C(=O)Nc2ccc3nc4n(c(=O)c3c2)CCCCC4)C1 (stereo not given),inactive,–
CCCNC(=O)c1cc(-c2ccccc2)c(N2CCCCC2)s1,"inconclusive [inhibitor, single point]",–
Cc1cccc(CCNC(=O)CN(C)S(=O)(=O)c2ccc3c(c2)c(=O)n(C)c(=O)n3C)c1,"inconclusive [inhibitor, single point]",–
Cc1ccc(Sc2ncnc3onc(C)c23)cc1,active: 20.6 µM,–
CCCSCCCNC(=O)C1CCN(C(=O)c2cnn(-c3ccccc3)c2-n2cccc2)CC1,"inconclusive [inhibitor, single point]",–
COc1ccc(CNC(=O)Cn2c(=O)nc(-c3ccccc3)c3cc(Cl)ccc32)cc1OC,"inconclusive [inhibitor, partial curve]",–
COc1ccc(C(=O)Nc2ccc3c(c2)C(=O)c2ccccc2C3=O)cc1OC,"inconclusive [inhibitor, partial curve]",–
CC1CCCCC1NC(=O)c1cc(S(=O)(=O)N2CCCCC2)ccc1N1CCOCC1 (stereo not given),"inconclusive [inhibitor, single point]",–
O=C1N(c2ccccc2C(F)(F)F)O[C@]1(c1ccccc1)C1CCCCC1,inactive,–
COc1cccc(CC(CC(=O)O)C(=O)Nc2cc(C)ccc2C)c1 (stereo not given),inactive,–
Cc1ccsc1/C=N/NC(=O)C(=O)NCC(C)C,inactive,–
Cc1csc(SCC(=O)NCCc2ccc(Cl)cc2Cl)n1,"inconclusive [inhibitor, single point]",–
COc1ccc2c(c1)CC/C2=N\OC(=O)c1cccc(C)c1,–,inconclusive: -34.1% [inhibitor]
COc1cc(NC(=O)c2cccc3c(-c4cnn(C)c4)coc23)cc(OC)c1OC,active: 3.26 µM,–
C=CCn1nnnc1SCC(=O)Nc1ccc(OC)cc1,inactive,–
COc1ccc(-c2nc(CS(=O)(=O)CC(=O)NCc3cccc(OC)c3OC)c(C)o2)cc1,"inconclusive [inhibitor, single point]",–
Cn1c(SCC(=O)Nc2ccc3nc(SCC(=O)N4CCCC4)sc3c2)nnc1-c1ccc(N)cc1,"inconclusive [inhibitor, full curve, poor fit]",–
Cc1ccc(NC(=O)c2cc(-c3cccc(O)c3)on2)cc1C,"inconclusive [inhibitor, single point]",–
CCCCC(C(=O)NC(C)(C)C)N(Cc1ccccc1)C(=O)c1snc(C(N)=O)c1N (stereo not given),"inconclusive [inhibitor, single point]",–
Cc1onc(-c2c(Cl)cccc2Cl)c1C(=O)Nn1cnnc1,–,inconclusive: -33% [inhibitor]
CCOc1ccc(NC(=O)CN(C)C(=O)c2cc3c(s2)CCC3)cc1OCC,"inconclusive [inhibitor, single point]",–

Structure (SMILES),Potency,"activity change, negative = growth inhibition"
COc1ccc(CCNC(=O)c2ccc3c(c2)N(Cc2ccc(F)cc2)CCS3)c(OC)c1,active: 13 µM,–
CN(c1ccccc1)S(=O)(=O)c1cccc(C(=O)NCc2ccccc2CN2CCCC2)c1,"inconclusive [inhibitor, single point]",–
COc1ccc(-c2cn(CCc3c[nH]c4ccccc34)nn2)cc1,active: 10 µM,–
CCN1C(=O)[C@H]2[C@H]3CN=C(SCc4ccc(C(=O)OC)cc4)N3[C@@](Cc3ccccc3)(C(=O)OC)[C@H]2C1=O,"inconclusive [inhibitor, single point]",–
CC(C)CCn1cnc2c(c1=O)c1nc3ccccc3nc1n2Cc1ccc2c(c1)OCO2,"inconclusive [inhibitor, full curve]",–
COCc1cc(C)nc(OCC(=O)N/N=C/c2ccco2)c1C#N,inactive,–
COC(=O)c1ccccc1NC(=O)C1CCC(=O)N1S(=O)(=O)c1ccc(C)cc1 (stereo not given),inactive,–
COCCn1c(CN2CCN(c3cccc(Cl)c3)CC2)nc2c1c(=O)n(C)c(=O)n2C,active: 13 µM,–
CCc1noc(C)c1C(=O)N1CCOc2ccc(CN3CCCC(C(=O)c4cccnc4)C3)cc2C1 (stereo not given),"inconclusive [inhibitor, single point]",–
Cc1cc(C(C)(C)C)oc1C(=O)N(CC(=O)NC1CCCC1)c1cccc(C(F)(F)F)c1,"inconclusive [inhibitor, single point]",–
COc1ccccc1CNC(=S)Nc1ccc(S(N)(=O)=O)cc1,inactive,–
COc1ccc(CCC(=O)NCc2ccc3c(c2)CCN3C(=O)c2ccc(Cl)cc2)cc1,"inconclusive [inhibitor, partial curve, poor fit]",–
COc1ccc(OC)c(-c2[nH]nc3c2C(c2ccco2)C(C#N)=C(N)O3)c1 (stereo not given),"inconclusive [inhibitor, single point]",–
Cn1nc(C(F)(F)F)c(-c2ccc(Br)cc2)c1NC(=O)c1ccco1,"inconclusive [inhibitor, single point]",–
CCc1ccccc1S(=O)(=O)Cc1ccc(C(=O)NCc2ccc(Cl)cc2)o1,"inconclusive [inhibitor, single point]",–
Clc1ccc(CCNc2ncnc3c2nnn3Cc2ccccc2)cc1,"inconclusive [inhibitor, full curve, poor fit]",–
NNC(=O)c1ccc(COc2ccc3c(c2)CCC3)cc1,–,inconclusive: -64.9% [inhibitor]
Cc1ccc(CSC2=Nc3ccccc3C3=NC(CCC(=O)NC4CCCCC4)C(=O)N23)cc1 (stereo not given),"inconclusive [inhibitor, single point]",–
O=C(O)c1ccccc1C(=O)NCCc1c(C(=O)O)[nH]c2ccc(F)cc12,inactive,–
CCc1ccc(C(=O)CC2(O)C(=O)N(CCc3ccccc3)c3ccc(Br)cc32)cc1 (stereo not given),"inconclusive [inhibitor, single point]",–
COc1ccccc1CN1CC[C@@]2(CCCN(S(=O)(=O)c3ccccc3)C2)C1,"inconclusive [inhibitor, single point]",–
